# Read counts are not given, so values of variants with three or more changes are uncertain.
# B1: CPEB3 Ribozyme (parent)
# chain: UAACAGGGGGCCACAGCAGAAGCGUUCACGUCGCAGCCCCUGUCAGAUUCUGGUGAAUCUGCGAAUUCUGCUGUAUAUCUC
# Variants of: B1
# Experiment: self-cleavage, relative activity (ratio to wild type); higher = more cleavage; in vitro, sequencing
# In short: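 Relative activity was defined as the cleaved/total read fraction for a variant divided by the same fraction for the unmutated ribozyme. CPEB3 self-cleaving ribozyme libraries were made by rounds of error-prone PCR, barcoded, and transcribed in vitro with T7 RNA polymerase for 5 hours at 37°C, and cleavage ran through transcription plus a 15 min DNase I step before EDTA. Illumina sequencing of template-switched reverse transcripts gave the reads, and DNA sequencing mapped the barcodes. Averages come from three batches, using variants with at least 5 reads.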
row,Variant,self-cleavage
1,U25C A28U U49C U60A C62A U72A,0.05
2,U25C C37U A45G G53U U69A,0.07
3,U25C G42A U49A,0.04
4,U25C A28G U67A U72C,0.05
5,U25C G30C C37A C39A U48C U74C,0.08
6,U25C C59U G63A,0.18
7,U25C A35G U41A U49A U60C U66C,0.34
8,U25C A28U C29U U31A U78C,0.29
9,U25C A35G C71U U72C U80C,0.2
10,U25A U41A U51C U72C,0.2
11,U25A U31C U43A U78C,0.09
12,U25C U26C U31A A47G U48C G53U U60G,0.08
13,U25C U26A U43G A45G U54C U67C U74C,0.11
14,U25C G36U C81U,0.04
15,U25A U60C U69A,0.13
16,U25C G61C U72A U76C,0.18
17,U25A G36U U49G,0.09
18,U25C A35G A56U U60C,0.18
19,U25C A45C G73C,0.06
20,U25A G36A U72C,0.15
21,U25C A28G A45U G46C U67A U69A A75G,0.11
22,U25C G33A U67C,0.17
23,U25C U26C U31C U60A U72C,0.18
24,U25C G33A U80G,0.16

row,Variant,self-cleavage
1,U25C A28G A35U,0.21
2,U25C A45G A47C,0.44
3,U25C A35U A47G G61A U80C,0.13
4,U25C C27A C32A,0.1
5,U25C A35G U43C G52A,0.18
6,U25C A28G A57G A77G,0.15
7,U25C A35G U67A U78C,0.11
8,U25C A65U U69C U78C,0.14
9,U25C A28C U41C U72A C79U,0.21
10,U25C C32A U41A A47C U74C,0.08
11,U25C U26A G53A,0.14
12,U25C U26C A45G U51C,0.37
13,U25A U31C C50U,0.34
14,U25A G33A U41A A56U U80A,0.07
15,U25C C38U U41C U49C U72C,0.11
16,U25C A47U A56G U66C U69C A75U,0.05
17,U25C A35G A56U,0.13
18,U25C G30A U43C,0.41
19,U25A U43C U49C A57U U58G U60C,0.02
20,U25C A35G A45U A47U U58C,0.06
21,U25C A35G U69A,0.2
22,U25A U51C A56G U76A,0.14
23,U25C G33A U69C U72C,0.06
24,U25C A64G A77G,0.47

row,Variant,self-cleavage
1,U25C G30A A47G U48C A56U,0.07
2,U25C G30A U60C,0.4
3,U25A U26C A65G A75G,0.08
4,U25C C32U A35U U76C,0.13
5,U25C A64G C71G,0.11
6,U25C A28U U41A A45U,0.23
7,U25C A28U U43A G52A U69C U76C,0.14
8,U25C G42U U49C,0.43
9,U25C C27G U49C A65C,0.15
10,U25A G33A U48C U54C A56G U67C U76A,0.06
11,U25C A65G U72C,0.3
12,U25C A56U U72A,0.25
13,U25C A28G U43A U58C U66A,0.08
14,U25C A35G A47U,0.18
15,U25C A35G A47G,0.13
16,U25C A35U A64U U69C,0.03
17,U25C C37A U51A U54C U58A,0.17
18,U25A U26C U78C,0.14
19,U25C A45G A64G U72C,0.14
20,U25C A45U U51C,0.31
21,U25C C39U A45U U74A,0.06
22,U25C A47G U51A U67A C71U,0.24
23,U25C G30A U41C U54C U69A U78C,0.07
24,U25A G53A U69A,0.23

row,Variant,self-cleavage
1,U25C A57G C59U,0.02
2,U25C A28G U69C U78C,0.19
3,U25C C40G U67A,0.12
4,U25C U26C A57G A77U,0.25
5,U25C A35U C39U A77U,0.12
6,U25C A28G C29A,0.27
7,U25A U54G A64G U74A A75U,0.13
8,U25C C27U U43G U54A,0.11
9,U25C C32U U49C,0.17
10,U25C A28G U31C A64G C71G,0.1
11,U25C U26C G33A U69A,0
12,U25C A28G U41C U69C,0.12
13,U25C U26A A45G A57G U60C U66G C79U,0.06
14,U25A U54C U60G U72C,0.15
15,U25C C34G U78A,0.05
16,U25C G55U G73A,0.4
17,U25C G30C C44U U74G,0.2
18,U25A U48C A64G U69C,0.08
19,U25C G36A U51A U58C U76A,0.15
20,U25C A28G U31C U43C,0.24
21,U25A U26C A56G U67G,0.05
22,U25C C40G U43C,0.21
23,U25C G53C U67C U69A A77G,0.22
24,U25A U43A U49C G70A U78C,0.07

row,Variant,self-cleavage
1,U25C G33C U72A,0.1
2,U25C U26A U41C U78G,0.12
3,U25A G61U A77G,0.14
4,U25C A28U A35G U58A U66C A75G,0.05
5,U25C U26C A45G U60C U67C,0.04
6,U25C A28G A65G,0.25
7,U25C A35G A47U U49A C62U,0.12
8,U25C C32U A35C,0.22
9,U25C A57C U72C,0.16
10,U25A U26C A35U,0.17
11,U25C G46U A56U U72C,0.15
12,U25C U26C U31G,0.13
13,U25C A45G U78A,0.19
14,U25C U26A A57G C71A,0.24
15,U25C A28U U51A A65G,0.25
16,U25C A45U U51C U58C,0.14
17,U25A U43C A45U U67A U80C,0.26
18,U25C C29G U74A A77G,0.31
19,U25C C37U A56G A65G C79U,0.19
20,U25C A65G U72C A75G,0.09
21,U25A U26C U69A U80A,0.37
22,U25A U41C U74C,0.12
23,U25A U60C C71A U80A,0.12
24,U25C A47G U51C A64G,0.18

row,Variant,self-cleavage
1,U25A U58C U66C U74A,0.06
2,U25A U41A U78C,0.1
3,U25C A47G U66C,0.47
4,U25A U48C U54C U78C C81G,0.15
5,U25C C50U A56G,0.22
6,U25C G63U U72A A77U U80C,0.06
7,U25C A45U G53U,0.25
8,U25C G55C A57G U58A U78G,0.09
9,U25C A35U A56U,0.34
10,U25C U26C G61C A64G,0.19
11,U25A U31C U41A A56G U72C,0.07
12,U25C G63A U78A,0.22
13,U25C A45G U48A,0.37
14,U25C A56G U66A,0.44
15,U25C A56G U66C,0.45
16,U25C C38A A47U,0.15
17,U25A U41A U43C,0.19
18,U25C G30A U78C,0.38
19,U25C C39A A45G C50G U60C,0.33
20,U25C C38A U49C U69G C71A,0.11
21,U25C A56U U76G,0.32
22,U25A U26C U41C G73A,0.09
23,U25C A28C A56G U60C A64U G73A,0.05
24,U25C A35G C39A,0.37

row,Variant,self-cleavage
1,U25C C37G U67C,0.51
2,U25A U43C A57G U72C,0.28
3,U25C C38U A57G U69C U72C,0.14
4,U25C A28G C38A U76C,0.09
5,U25A U54C U60C,0.18
6,U25C A35G U72C U78C,0.38
7,U25A U26C U66C,0.09
8,U25C G33A U48C A64G U69C U72A,0.04
9,U25C A28G U72A,0.14
10,U25C A35G C71A,0.13
11,U25A U72C U74C,0.21
12,U25C A45G U49A,0.19
13,U25C A47U U49A U78A,0.07
14,U25C U26C G46C A64C,0.15
15,U25C U26A U41C A47G U49A C62U U80C,0.07
16,U25C A45U A47U,0.07
17,U25A U41A A45U,0.14
18,U25C A45G A47U U72C,0.07
19,U25A U66C U76C,0.25
20,U25C A45U U66C,0.14
21,U25A U48C G73A,0.07
22,U25C A65G C68G,0.11
23,U25C A28U A64G,0.33

# — the RNAGym collection of RNA variant scans (doi:10.1093/nar/gkz1192)
